Results published in PubChem BioAssay AID1345083 (National Center for Advancing Translational Sciences (NCATS), 2018).
Out of some 94,000 compounds screened, about 6,200 (6.6%) were called active. The inconclusive results got no clear call from the source; some entries with a clear call stand among them for comparison. Calls come from the whole dose curve; as a rule, active = well fitted inhibition curve with a large enough effect; inconclusive = small, poorly fitted or top-dose-only effect; inactive = flat fitted curve, though single readings scatter. A potency beside an inconclusive call is a rough fit, not a confirmed value.

Assay: Cytotoxic Profiling in HEK 293 Cell Line of Diverse Libraries Using Quantitative High-Throughput Screening; note: nearly all actives have a fitted effect of over 60% in size
Settings: HEK 293 viability, ATP luminescence (CellTiter-Glo), 48-72 h; series mostly up to 115 µM
Summary of the method: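 HEK 293 cells at 250 cells/well were exposed to compounds by pintool transfer for 48 or 72 hr at 37 degree Celsius, 5% CO2. Viability was read as ATP-coupled luminescence with CellTiter-Glo after 10 min at room temperature.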
Potency is the fitted concentration of half-maximal effect; tags give direction and shape of the fitted curve.

Q: With COc1cc(CNC(=O)c2cc(-c3ccc(Cl)cc3Cl)nc3c2cnn3C)cc(OC)c1 as the molecule, how does the Potency read?
A: active: 44.7 µM

Q: Which Potency does the source give for COc1cccc(C(=O)NC(C(=O)N2CCCCC2)C2CCN(C(=O)c3ccc(Cl)cc3)CC2)c1 (stereo unspecified) here?
A: inconclusive: 89.1 µM [inhibitor, partial curve, poor fit]

Q: For Cc1nn(C)c(C)c1CCC(=O)N1C[C@@H](Oc2cccnc2)C[C@H]1C(=O)NC1CC1, which Potency is on record?
A: inconclusive: 56.2 µM [inhibitor, partial curve, poor fit]

Q: Which Potency does the source give for O=C1COc2ccc(-c3ccc(Cl)cc3)nc2CN1Cc1ccccc1 here?
A: active: 63.1 µM

Q: For CN1CCCN(S(=O)(=O)c2ccc(Cl)s2)c2ccccc21, which Potency is on record?
A: inconclusive: 31.6 µM [inhibitor, partial curve, poor fit]

Q: With COCCNC(=O)[C@@H]1C[C@H](Oc2cccnc2)CN1C(=O)c1ccccn1 as the molecule, how does the Potency read?
A: inactive

Q: Which Potency does the source give for COc1cccc(CC(=O)NCCn2ccn3nc(-c4cccc(OC)c4)cc3c2=O)c1 here?
A: inconclusive: 89.1 µM [inhibitor, single point]

Q: With Cc1ccc(CN2CCC(Cn3c(C)cnc3-c3cccnc3)CC2)s1 as the molecule, how does the Potency read?
A: inconclusive: 10 µM [inhibitor, full curve, poor fit]

Q: Which Potency does the source give for CN1C(=O)CS(=O)(=O)C12CCN(C(=O)c1ccco1)CC2 here?
A: inactive

Q: Which Potency does the source give for Cc1ccc(CNC(=O)C2CCN(C(=O)N3CC4CC(C3)[C@H]3CCCC(=O)N3C4)CC2)o1 (stereo partly specified) here?
A: inactive

Q: With O=C1Cc2c(-c3ccccc3Oc3ccccc3)n[nH]c2CN1Cc1ccccc1F as the molecule, how does the Potency read?
A: inconclusive: 28.2 µM [inhibitor, full curve]

Q: With CCn1cc(CN2CCCC23CCN(c2ccc(C(F)(F)F)cn2)CC3)c(C)n1 as the molecule, how does the Potency read?
A: inconclusive: 44.7 µM [inhibitor, partial curve, poor fit]

Q: Which Potency does the source give for CC(C(=O)N1CCn2nc(Cc3ccccc3)cc2C1)c1ccc(O)cc1 (stereo unspecified) here?
A: inconclusive: 39.8 µM [inhibitor, partial curve, poor fit]

Q: With CN(Cc1ccccc1)C(=O)c1cccc2c1CCN2C(=O)Nc1ccccc1 as the molecule, how does the Potency read?
A: inconclusive: 35.5 µM [inhibitor, partial curve, poor fit]

Q: Which Potency does the source give for Cc1cnc(-c2ccccc2)n1C1CCNCC1 here?
A: inactive

Q: With COc1ccc(CCNC(=O)C23CCC=C2N(C2CCCC2)C(=O)CC3)cc1OC (stereo unspecified) as the molecule, how does the Potency read?
A: inconclusive: 50.1 µM [inhibitor, partial curve, poor fit]

Q: With COc1ccc(CC(=O)N2CCC(N3C(=O)c4c(c(C)nn4-c4ccccc4)C3C(C)C)C2)cc1 (stereo unspecified) as the molecule, how does the Potency read?
A: inconclusive: 50.1 µM [inhibitor, partial curve, poor fit]

Q: Which Potency does the source give for O=C1CC2(CCN(C(=O)C3CCc4ccccc43)CC2)CN1Cc1ccccc1 (stereo unspecified) here?
A: inconclusive: 56.2 µM [inhibitor, partial curve, poor fit]

Q: For CC(C)CC(=O)N[C@@H]1CN(Cc2ccccc2)C[C@H]1CN(C)C, which Potency is on record?
A: inactive

Q: For O=C1CC2(CCN(Cc3cccnc3)CC2)Oc2ccccc21, which Potency is on record?
A: inconclusive: 126 µM [inhibitor, single point]

Q: Which Potency does the source give for Cc1cc(OCCN2CCOCC2)c(C)c2c1CC[C@@H]([C@H](C)C(=O)N1CCCCC1)C2 here?
A: active: 20 µM

Q: For CCCCN1C(=O)[C@@H]2C[C@@H](O)CN2C2(CN(Cc3ccncc3)C2)C1=O, which Potency is on record?
A: inactive

Q: For COc1ccc(CCN2C(=O)O[C@@H]3CN(c4ncc(C)c(N(C)C)n4)C[C@@H]32)cc1, which Potency is on record?
A: inconclusive: 79.4 µM [inhibitor, single point]

Q: With O=C(N[C@H]1CCN2C(=O)c3cc(-c4cccc(C(F)(F)F)c4)ccc3NC(=O)[C@@H]2C1)c1ccncc1 as the molecule, how does the Potency read?
A: active: 39.8 µM

Q: For Cc1ccncc1-c1c(C)nn2c1N(Cc1ccc(C(=O)O)cc1)CCC2, which Potency is on record?
A: inconclusive: 100 µM [inhibitor, partial curve]

Q: Which Potency does the source give for CN(C)c1nccnc1OC1CCN(C(=O)CCCc2ccccc2)C1 (stereo unspecified) here?
A: active: 79.4 µM

Q: For CC(=O)N1CCC(Nc2ncccc2-c2cc(-c3ccccc3)nc3c(C)noc23)CC1, which Potency is on record?
A: active: 100 µM

Q: For O=C(C1=NO[C@@H]2CN(Cc3ccc(F)cc3)C[C@H]12)N1CCN(c2ccccn2)CC1, which Potency is on record?
A: inconclusive: 100 µM [inhibitor, partial curve]

Q: With CCc1ccccc1NC(=O)C1CN(S(=O)(=O)c2cccnc2)CC12CCCCC2 (stereo unspecified) as the molecule, how does the Potency read?
A: inconclusive: 79.4 µM [inhibitor, single point]

Q: For CCn1nc(-c2ccccc2S(=O)(=O)NC(C)(C)C)nc1N(C)C, which Potency is on record?
A: inconclusive: 56.2 µM [inhibitor, partial curve, poor fit]

Q: With CC(C)(C)C(=O)NCCNC(=O)c1ccc(-c2cccc(C(F)(F)F)c2)cc1 as the molecule, how does the Potency read?
A: active: 28.2 µM

Q: With CCOC(=O)C1CCN(C(=O)C2CCc3nnc(-c4ccc(F)cc4)n32)CC1 (stereo unspecified) as the molecule, how does the Potency read?
A: inactive

Q: For CN(C)c1ccc(-c2cc3c(ccn3C)c(C(=O)NCc3cccnc3)n2)cc1, which Potency is on record?
A: inconclusive: 39.8 µM [inhibitor, full curve]

Q: Which Potency does the source give for CN1Cc2ccc(NCc3ccccc3)nc2C(C)(C(=O)NCc2cccnc2)C1 (stereo unspecified) here?
A: inconclusive: 112 µM [inhibitor, partial curve, poor fit]

Q: With O=C(CCC1CCCN(Cc2cnc(-c3ccccc3)s2)C1)Nc1ccccc1F (stereo unspecified) as the molecule, how does the Potency read?
A: inconclusive: 39.8 µM [inhibitor, partial curve, poor fit]

Q: With COc1cccc(CN2CC[C@H](c3n[nH]c(C)n3)[C@H](NC(=O)C3CC3)C2)c1 as the molecule, how does the Potency read?
A: inactive

Q: With COC[C@@]12CN(Cc3ccccc3)C[C@@H]1C(C)(C)COc1ccc(OC)cc12 as the molecule, how does the Potency read?
A: inconclusive: 44.7 µM [inhibitor, partial curve]

Q: With CN1C(=O)[C@@H]2C[C@@H](O)CN2C2(CN(C3CCCCC3)C2)C1=O as the molecule, how does the Potency read?
A: inactive

Q: For Cc1ccc(-c2nnc3ccc(Nc4cccc(N(C)C)c4)nn23)nc1, which Potency is on record?
A: inconclusive: 50.1 µM [inhibitor, full curve]

Q: For Cc1ccccc1C(=O)N1CC(N2C(=O)c3c(c(C)nn3-c3ccccc3)C2C(C)C)C1 (stereo unspecified), which Potency is on record?
A: active: 50.1 µM

Q: Which Potency does the source give for COCCN1C(=O)Cc2ccccc2C1C(=O)NCC1CCCCC1 (stereo unspecified) here?
A: inactive

Q: For O=C1NC2(CCN(Cc3cncs3)CC2)Oc2ccccc21, which Potency is on record?
A: inactive

Q: With O=C(Cc1ccc(OC(F)(F)F)cc1)N1CCC([C@@H]2CNC[C@H]2CO)CC1 as the molecule, how does the Potency read?
A: inconclusive: 89.1 µM [inhibitor, single point]

Q: With OCC1(Cc2ccccc2)CCCN(Cc2cn[nH]c2-c2ccc(F)cc2)C1 (stereo unspecified) as the molecule, how does the Potency read?
A: inconclusive: 100 µM [inhibitor, partial curve, poor fit]

Q: For Cc1ccc(-c2cc3c(=O)n(CCNC(=O)c4cc(C5CC5)[nH]n4)ccn3n2)c(C)c1, which Potency is on record?
A: inconclusive: 17.8 µM [inhibitor, full curve]

Q: For CCNC(=O)[C@@H]1C[C@H](NC(=O)c2ccc[nH]2)CN1C(=O)CCn1cnnn1, which Potency is on record?
A: inactive

Q: With CCOc1cccc(CN2CCC3(Cc4ccccc4CNC3=O)C2)c1 (stereo unspecified) as the molecule, how does the Potency read?
A: inconclusive: 56.2 µM [inhibitor, partial curve, poor fit]

Q: For CO[C@H]1C(=O)N(C(C)C)[C@H]1C1CCN(C(=O)NCc2ccc(C)cc2)CC1, which Potency is on record?
A: inactive

Q: With CC(C)NC(=O)N1CCC2(CC1)CN(C(=O)c1ccc3[nH]ccc3c1)Cc1ccccc1O2 as the molecule, how does the Potency read?
A: inconclusive: 20 µM [inhibitor, partial curve]

Q: For COc1ccc(CN2CC(CN[S+](=O)([O-])c3ccccc3)C3(C2)CN(c2ccccc2)C3)cc1O (stereo unspecified), which Potency is on record?
A: inconclusive: 50.1 µM [inhibitor, partial curve, poor fit]

Q: For CN(Cc1ccccn1)C(=O)CC(c1cccc(O)c1)c1ccccc1Cl (stereo unspecified), which Potency is on record?
A: inconclusive: 31.6 µM [inhibitor, full curve]

Q: Which Potency does the source give for O=C(N[C@H]1CO[C@H]2[C@@H]1OC[C@@H]2Nc1nccc(-c2ccco2)n1)c1ccco1 here?
A: inconclusive: 100 µM [inhibitor, partial curve]

Q: With COc1ccc(-c2cn3cc(C(=O)N4CCCCC4)nc3s2)cc1 as the molecule, how does the Potency read?
A: inconclusive: 89.1 µM [inhibitor, partial curve, poor fit]

Q: For O=C(Nc1cnc(-c2cccc(Cl)c2)nc1)C1CCCO1 (stereo unspecified), which Potency is on record?
A: inconclusive: 50.1 µM [inhibitor, partial curve, poor fit]

Q: For CCc1nc(NC(=O)C2CC(=O)N(c3n[nH]c4cc(Br)ccc34)C2)sc1C (stereo unspecified), which Potency is on record?
A: inconclusive: 70.8 µM [inhibitor, partial curve, poor fit]

Q: Which Potency does the source give for CNC(=O)C1(N2CCC[C@H]2C(=O)NC(C)(C)C)COC1 here?
A: inconclusive: 35.5 µM [inhibitor, single point]

Q: Which Potency does the source give for NC(=O)Cc1c[nH]c2ncc(-c3ccc(F)cc3)cc12 here?
A: inactive

Q: For CC(=O)N1CCC(N2CC[C@H](c3nc4ccccc4s3)C2)CC1, which Potency is on record?
A: inactive

Q: Which Potency does the source give for COCCCn1c(=O)c(C(=O)NCc2ccccc2Cl)nc2cccnc21 here?
A: inactive

Q: With COc1ccc(Cl)cc1C(=O)N1CCN(c2cc(-c3cccs3)[nH]n2)CC1 as the molecule, how does the Potency read?
A: inconclusive: 44.7 µM [inhibitor, partial curve, poor fit]

Q: With O=C(C1CC1)N(C1CCOCC1)C1CCN(S(=O)(=O)c2ccccc2)CC1 as the molecule, how does the Potency read?
A: inactive

Q: With Cc1ccccc1-n1nc(C)c(CCC(=O)NC(C)C)c1Oc1cccc(F)c1 as the molecule, how does the Potency read?
A: inconclusive: 22.4 µM [inhibitor, partial curve, poor fit]

Q: For Cc1cn2nc(C(=O)NCCc3ccccc3)cc2c(=O)[nH]1, which Potency is on record?
A: inactive

Q: With O=C(N1CCC(Cc2nc(C3CCOCC3)no2)CC1)C1(c2ccccc2)CC1 as the molecule, how does the Potency read?
A: inactive

Q: Which Potency does the source give for O=c1c2c3c(nn2ccn1Cc1cc(F)cc(F)c1)CCCC3 here?
A: inconclusive: 44.7 µM [inhibitor, partial curve, poor fit]

Q: Which Potency does the source give for COCC(=O)N1CCCN(Cc2ccncc2)C(c2ccccc2)CC(=O)NCC1 (stereo unspecified) here?
A: inactive
